Assay results: US8551981B2, “Furo[3,2-d]pyrimidine compounds” (AbbVie Inc., priority 2010, dated 2013)

Molecular target: Syk catalytic domain (aa 356-635 with a C-terminal His-tag) (Homo sapiens, UniProt P43405)
Test: In vitro Syk kinase activity by trFRET (Syk catalytic domain)
[1] = Syk IC50, Syk catalytic domain (aa 356-635), trFRET, 0.001 mM ATP
[2] = Syk catalytic domain (aa 356-635), trFRET, 0.001 mM ATP, read-out: Syk IC50

Structure (SMILES) | IC50 (Syk IC50, class symbols A-D) [nM] | IC50 [1] [nM] | further results
CC(=O)N(C)c1ccc(Nc2nc(NC3CCC3)c3occc3n2)cc1 [B.5.1] | – | 100 to 1000 | –
O=C(NC1CC1)c1n[nH]c2cc(Nc3nc(NC4CC4)c4occc4n3)ccc12 [E.2.1, N-Cyclopropyl-6-(4-(cyclopropylamino)furo[3,2-d]pyrimidin-2-ylamino)-1H-indazole-3-carboxamide] | – | < 100 | –
NC(=O)[C@@H]1CCC[C@@H]1Nc1nc(Nc2ccc(S(N)(=O)=O)cc2)nc2ccoc12 [B.2.7] | – | 1000 to 10000 | –
CC1(C)Oc2ccc(Nc3nc(N4CCC(C#N)(CCO)CC4)c4occc4n3)cc2NC1=O [B.5.97] | – | – | IC50 [2]: 100 to 1000 nM
CC1(C)Oc2ccc(Nc3nc(N4CCC(CNCCS(C)(=O)=O)CC4)c4occc4n3)cc2NC1=O [B.5.65] | – | – | IC50 [2]: < 100 nM
OCc1cccc(Nc2nc(NC3CC3)c3occc3n2)c1 [B.5.29] | – | 100 to 1000 | –
Cc1n[nH]c2cc(Nc3nc(NC4CC4)c4occc4n3)cc(F)c12 [Example #AC.1.1] | – | < 100 | –
c1cc2nc(Nc3ccc4c(c3)OCCO4)nc(NC3CC3)c2o1 [B.5.53] | – | 100 to 1000 | –
NS(=O)(=O)c1ccc(Nc2nc(NC3CCC3)c3occc3n2)cc1 [B.2.5] | – | 100 to 1000 | –
CC1(C)Oc2ccc(Nc3nc(Nc4ccc5c(c4)NC(=O)C(C)(C)O5)c4occc4n3)cc2NC1=O [B.5.62] | – | – | IC50 [2]: 100 to 1000 nM
Cc1n[nH]c2cc(Nc3nc(NC4CC4C(F)(F)F)c4occc4n3)ccc12 (stereo not drawn) [J.1.6] | – | 100 to 1000 | –
Cc1cc(=O)[nH]c2cc(Nc3nc(NC4CC4)c4occc4n3)ccc12 [B.5.35] | – | < 100 | –
CCCNc1nc(Nc2ccc3c(c2)NC(=O)CC3)nc2ccoc12 [B.5.113] | – | 100 to 1000 | –
N#Cc1n[nH]c2cc(Nc3nc(NC4CC4)c4occc4n3)ccc12 [J.1.8] | – | < 100 | –
c1cc2nc(Nc3ccc4[nH]ncc4c3)nc(NC3CC3)c2o1 [C.1.20] | < 100 | – | –
NC(=O)C1CCN(c2nc(Nc3ccc(S(N)(=O)=O)cc3)nc3ccoc23)CC1 [B.2.2] | – | 1000 to 10000 | –
CC1(C)Oc2ccc(Nc3nc(NC4CCC4)c4occc4n3)cc2NC1=O [B.5.6] | – | – | IC50 [2]: 100 to 1000 nM
c1cc(-c2n[nH]c3cc(Nc4nc(NC5CC5)c5occc5n4)ccc23)ccn1 [J.1.7] | – | < 100 | –
CCCC(=O)Nc1ccc(Nc2nc(N3CCC(CN)CC3)c3occc3n2)cc1 [C.1.8] | 100 to 1000 | – | –
Cc1nc2ccc(Nc3nc(NC4CC4)c4occc4n3)cc2s1 [B.5.44] | – | 100 to 1000 | –
CC(=O)N1CCN(c2ccc(Nc3nc(NC4CC4)c4occc4n3)cc2)CC1 [B.1.6] | – | 100 to 1000 | –

Structure (SMILES) | IC50 (Syk IC50, class symbols A-D) [nM] | IC50 [1] [nM] | further results
CCN(CC)c1nc(Nc2ccc3c(c2)NC(=O)C(C)(C)O3)nc2ccoc12 [B.5.73] | – | – | IC50 [2]: 100 to 1000 nM
c1cc2nc(Nc3ccc4c(NC5CCOCC5)n[nH]c4c3)nc(NC3CC3)c2o1 [B.5.128] | – | < 100 | –
NCC1CCN(c2nc(Nc3ccc(S(N)(=O)=O)cc3)nc3ccoc23)CC1 [C.1, 4-(4-(4-(Aminomethyl)piperidin-1-yl)furo[3,2-d]pyrimidin-2-ylamino)benzenesulfonamide] | – | < 100 | –
CNCc1ncc2n1CCN(c1nc(Nc3ccc4cn[nH]c4c3)nc3ccoc13)C2 [C.1.19] | 100 to 1000 | – | –
Cc1n[nH]c2cc(Nc3nc(NC4CCC4)c4occc4n3)ccc12 [B.5.106] | – | < 100 | –
CC(=O)N1CCc2ccc(Nc3nc(NC4CC4)c4occc4n3)cc2CC1 [B.5.57] | – | 100 to 1000 | –
CC1(C)Oc2ccc(Nc3nc(N4CCC(CO)C4)c4occc4n3)cc2NC1=O (stereo not drawn) [B.5.101] | – | – | IC50 [2]: 100 to 1000 nM
CNCC1CCN(c2nc(Nc3ccc(N4CCN(C(C)=O)CC4)cc3)nc3ccoc23)CC1 [C.1.2] | < 100 | – | –
c1cnn(-c2ccc(Nc3nc(NC4CC4)c4occc4n3)cc2)n1 [B.5.55] | – | 100 to 1000 | –
NCCCNc1nc(Nc2ccc3cn[nH]c3c2)nc2ccoc12 [Q.1.1] | 100 to 1000 | – | –
FC(F)(F)CNc1nc(Nc2ccc3cn[nH]c3c2)nc2ccoc12 [Example #13, N^2-(1H-Indazol-6-yl)-N^4-(2,2,2-trifluoroethyl)furo[3,2-d]pyrimidine-2,4-diamine] | – | < 100 | –
CCCNc1nc(Nc2ccc(C(C)(C)C#N)cc2)nc2ccoc12 [B.5.116] | – | 100 to 1000 | –
O=C1CCc2cc(Nc3nc(NC4CCC4)c4occc4n3)ccc2N1 [B.5.5] | – | 100 to 1000 | –
NC(=O)[C@H]1[C@@H](Nc2nc(Nc3ccc4cn[nH]c4c3)nc3ccoc23)[C@@H]2C=C[C@H]1C2 [C.1.50] | < 100 | – | –
Cn1cc(Nc2nc(NC3CC3)c3occc3n2)cn1 [B.1.10] | – | 100 to 1000 | –
Cc1n[nH]c2cc(Nc3nc(N[C@H]4CC[C@@H](N)C4)c4occc4n3)ccc12 [C.1.28] | 100 to 1000 | – | –
CC(C)(C)Nc1nc(Nc2ccc3c(c2)NC(=O)C(C)(C)O3)nc2ccoc12 [B.5.72] | – | – | IC50 [2]: 100 to 1000 nM
O=S1(=O)CCN(c2ccc(Nc3nc(NC4CC4)c4occc4n3)cc2)CC1 [B.5.32] | – | < 100 | –
Cc1cc(Nc2nc(NC3CC3)c3occc3n2)cc2[nH]ncc12 [Example #AC.1, N^4-cyclopropyl-N^2-(4-methyl-1H-indazol-6-yl)furo[3,2-d]pyrimidine-2,4-diamine] | – | < 100 | –
CCNc1nc(Nc2ccc3c(c2)NC(=O)C(C)(C)O3)nc2ccoc12 [B.5.39] | – | – | IC50 [2]: 100 to 1000 nM

Further lines, with some results ahead:

IC50 (Syk IC50, class symbols A-D) [nM] | IC50 [1] [nM] | Structure (SMILES) | further results
100 to 1000 | – | CC1(C)Oc2ccc(Nc3nc(N4CCC5(CCN5)CC4)c4occc4n3)cc2NC1=O [C.1.80] | –
– | 100 to 1000 | CNCC1CCN(c2nc(Nc3ccc4cn[nH]c4c3)nc3ccoc23)C1 (stereo not drawn) [J.1.2] | –
– | 100 to 1000 | O=C1COc2ccc(Nc3nc(N4CCC(CNCC(F)F)CC4)c4occc4n3)cc2N1 [B.5.84] | –
– | < 100 | O=c1ccc2ccc(Nc3nc(N4CCC(CNCC(F)F)CC4)c4occc4n3)cc2[nH]1 [B.5.82] | –
100 to 1000 | – | CC1(C)Oc2ccc(Nc3nc(N4CCC5(CCNCC5)C4)c4occc4n3)cc2NC1=O [C.1.78] | –
100 to 1000 | – | CC1(C)Oc2ccc(Nc3nc(N4CCC5(CCNC5)C4)c4occc4n3)cc2NC1=O (stereo not drawn) [C.1.77] | –
< 100 | – | FCCNCC1CCN(c2nc(Nc3ccc4cn[nH]c4c3)nc3ccoc23)CC1 [C.1.15] | –
– | < 100 | CC1(C)Sc2ccc(Nc3nc(NC4CC4)c4occc4n3)cc2NC1=O [B.5.31] | –
– | 100 to 1000 | CCCNc1nc(Nc2ccc3c(c2)NC(=O)C(C)(C)C3)nc2ccoc12 [B.5.114] | –
– | < 100 | CC1(C)C(=O)Nc2cc(Nc3nc(N4CCC(CNCCC(F)(F)F)CC4)c4occc4n3)ccc21 [B.5.102] | –
< 100 | – | Clc1cc(Nc2nc(N3CCC4(CCNC4)CC3)c3occc3n2)ccc1N1CCOCC1 [C.1.44] | –
< 100 | – | CNCC1CCN(c2nc(Nc3ccc4c(c3)NC(=O)C4(C)C)nc3ccoc23)CC1 [C.1.51] | –
– | < 100 | Cc1n[nH]c2cc(Nc3nc(N4CCC5(CCNC5)CC4)c4occc4n3)ccc12 [Example #5, N-(3-Methyl-1H-indazol-6-yl)-4-(2,8-diazaspiro[4.5]decan-8-yl)furo[3,2-d]pyrimidin-2-amine] | –
< 100 | – | CNCC1CCN(c2nc(Nc3ccc4c(c3)NC(=O)C(C)(C)O4)nc3ccoc23)CC1 [C.1.22] | –
– | < 100 | O=C1CCc2ccc(Nc3nc(N4CCC(CNCC(F)F)CC4)c4occc4n3)cc2N1 [B.5.79] | –
– | < 100 | CC(NCC(F)F)C1CCN(c2nc(Nc3ccc4c(c3)NC(=O)C4(C)C)nc3ccoc23)CC1 (stereo not drawn) [B.5.90] | –
< 100 | – | CC1(C)C(=O)Nc2cc(Nc3nc(N4CCC5(CCNC5)CC4)c4occc4n3)ccc21 [C.1.38] | –
– | < 100 | Cc1n[nH]c2cc(Nc3nc(N4CCC(CN)CC4)c4occc4n3)ccc12 [Q.1, 4-(4-(Aminomethyl)piperidin-1-yl)-N-(3-methyl-1H-indazol-6-yl)furo[3,2-d]pyrimidin-2-amine] | –
– | 100 to 1000 | CC(C)CNc1nc(Nc2ccc3c(c2)NC(=O)C3(C)C)nc2ccoc12 [B.5.80] | –
< 100 | – | Clc1cc(Nc2nc(N3CCC4(CCCNC4)CC3)c3occc3n2)ccc1N1CCOCC1 [C.1.41] | –
< 100 | – | Cc1n[nH]c2cc(Nc3nc(N4CCC(CNCCC(F)(F)F)CC4)c4occc4n3)ccc12 [C.1.74] | –
< 100 | – | CC1(C)Oc2ccc(Nc3nc(N4CC[C@@H](CN)[C@H](O)C4)c4occc4n3)cc2NC1=O [Example #AM.1.2] | –
< 100 | – | CC1(C)Oc2ccc(Nc3nc(N4CCC5(CCCNC5)C4)c4occc4n3)cc2NC1=O (stereo not drawn) [C.1.36] | –
– | < 100 | COC1(CN)CCN(c2nc(Nc3ccc4c(c3)NC(=O)C(C)(C)O4)nc3ccoc23)CC1 [F.1, 6-(4-(4-(Aminomethyl)-4-methoxypiperidin-1-yl)furo[3,2-d]pyrimidin-2-ylamino)-2,2-dimethyl-2H-benzo[b][1,4]oxazin-3(4H)-one] | –
– | 100 to 1000 | CC(C)CNc1nc(Nc2ccc3c(c2)NC(=O)CC3)nc2ccoc12 [B.5.111] | –
100 to 1000 | – | Cc1n[nH]c2cc(Nc3nc(N4CCC4)c4occc4n3)ccc12 [C.1.47] | –
< 100 | – | Cc1n[nH]c2cc(Nc3nc(N4CCC5(CC4)CNCCO5)c4occc4n3)ccc12 [Q.1.4] | –
100 to 1000 | – | NC1CCCN(c2nc(Nc3ccc4cn[nH]c4c3)nc3ccoc23)CC1 (stereo not drawn) [C.1.82] | –

Like-named read-outs stand apart in the source and are kept apart here.
